Experimental findings from ChEMBL document CHEMBL4888484, “Replenishing the malaria drug discovery pipeline: Screening and hit evaluation of the MMV Hit Generation Library 1 (HGL1) against asexual blood stage Plasmodium falciparum ,using a nano luciferase reporter read-out” (2022) are described below.

Among all 150,000 compounds or so, about 540 (0.36%) showed an effect of 50% or more. The list shows a part of the results.

In the experiment the test system is Plasmodium falciparum. The experiment is described as follows: Primary screen in NF54 nanoGlo assay, in single point, at 2uM, 72h; a lower Z score goes with more inhibition. In kind it is functional, Erythrocyte. The settings on record: timepoint 72 hour.
The term % Inhibition denotes the relative decrease from the control value, in per cent. Consider `Cc1n[nH]c(C)c1S(=O)(=O)N1CC[C@@]2(CCCN(CC3CCC3)C2=O)C1`, for which the “% Inhibition” value is -10% and the Z score was determined as 1.3.

With `Cc1nnc2ccc(N3CCCN(c4ccc(C#N)cn4)CC3)nn12`, the “% Inhibition” value is 4% and the Z score is listed as -0.43.

Regarding `COC(=O)[C@H]1CCN(C(=O)NCc2ccncc2)C1`, the “% Inhibition” value is on record as 0% and the Z score stood at 0.01.

Regarding `CC(C)n1nccc1C(=O)N(CCC#N)CC1CC1`, the “% Inhibition” value is recorded as 2% and the Z score was -0.3.

Consider `Cc1csc(N(C)C(=O)c2cnc3n2CCCC3)n1`, for which the “% Inhibition” value is reported as -15% and the Z score came out at 2.94.

Take `O[C@H]1CC[C@H](NCc2cccc(F)c2)CC1`: the “% Inhibition” value amounted to 0% and the Z score is reported as 0.02.

On to `CC(C)(C)OC(=O)NCc1ccccc1CCC(=O)O`, for which the “% Inhibition” value is on record as -5% and the Z score worked out at 0.53.

Regarding `O=C(NCC[C@H]1CCCN1)c1ccc(-c2nccc3ccccc23)cc1`, the “% Inhibition” value is -3% and the Z score is reported as 0.41.

Consider `COc1cccc(-c2n[nH]c(CC(C)C)c2NC(=O)Cc2cccs2)c1`, for which the “% Inhibition” value came to 15% and the Z score is given as -2.17.

Take `Cc1cccc(CC(=O)N2C[C@@H]3C[C@H](NC(=O)c4cccs4)[C@H]2C3)c1`: the “% Inhibition” value worked out at 28% and the Z score is listed as -3.2.

For the compound `CC(C)c1ocnc1C(=O)NC1(C(F)(F)F)CCCCC1`, the “% Inhibition” value was -4% and the Z score amounted to 0.49.

Take `Cc1ccc(C(=O)c2ccccc2)c(NC(=O)CNS(=O)(=O)c2ccccc2C)c1`: the “% Inhibition” value is on record as -2% and the Z score stood at 0.39.

In the case of `Cc1ccc(Cc2noc(CCc3ccc(C)s3)n2)cn1`, the “% Inhibition” value is on record as -1% and the Z score turned out to be 0.16.

Regarding `CCC(C#CCN1CCOCC1)(CC)OCCC#N`, the “% Inhibition” value is listed as -4% and the Z score came to 0.54.

For the compound `CNC(=O)C1=C(Nc2ccccc2OC)c2ccccc2S1(=O)=O`, the “% Inhibition” value was -7% and the Z score was 0.66.

With `COc1cccc([C@@H](C)Nc2cc(C)nc3ccnn23)c1`, the “% Inhibition” value is -3% and the Z score is given as 0.56.

Take `O=C(c1cc2occc2[nH]1)N1CCc2nc[nH]c2C1`: the “% Inhibition” value stood at 2% and the Z score is recorded as -0.34.

Consider `Cc1cccc(CN2CC[C@H](CO)[C@H](NC(=O)c3cccnc3)C2)c1`, for which the “% Inhibition” value is given as -1% and the Z score stood at 0.17.

`Cc1nc(-c2cnc(CN3CCCC3)s2)n([C@H]2CCS(=O)(=O)C2)n1`: the “% Inhibition” value is recorded as -11% and the Z score is on record as 2.13.

Take `O=C([C@@H]1CCCO1)N1CCN(c2cc(Nc3ccccn3)ncn2)CC1`: the “% Inhibition” value was -3% and the Z score is recorded as 0.58.

`CCc1nocc1CNc1cnc2[nH]ncc2c1`: the “% Inhibition” value is recorded as -5% and the Z score is recorded as 0.55.

`Cc1ccc(CN(CC(=O)NCCC#N)C(C)C)o1`: the “% Inhibition” value is recorded as -1% and the Z score is on record as 0.18.

Turning to `Cc1[nH]nc(CCC(=O)N2CC[C@@](O)(C3CCOCC3)[C@H](C)C2)c1C`, the “% Inhibition” value is -3% and the Z score turned out to be 0.42.

`Cc1cccc(COC(=O)Nc2ccc(NC(=O)c3ccccc3Cl)cc2)c1`: the “% Inhibition” value was -13% and the Z score was found to be 1.76.

Take `C#CC[C@H](C)OC(=O)c1ccncc1Cl`: the “% Inhibition” value is given as -7% and the Z score came out at 1.05.

Turning to `CC(C)n1nccc1C(=O)N[C@@H](C)Cc1cccnc1`, the “% Inhibition” value amounted to 4% and the Z score is on record as -0.77.

As to `CC[C@H](C)C(=O)Nc1nc(C(C)=O)cs1`, the “% Inhibition” value is reported as -2% and the Z score turned out to be 0.23.

As for `Cn1c(N2CCC(C(=O)Nc3ccccc3F)CC2)cc(=O)n(C)c1=O`, the “% Inhibition” value is -6% and the Z score was 0.93.

Regarding `CCOC(=O)c1c(S(=O)(=O)NCC(=O)Nc2ccc(Cl)cc2C)c(C)n(CC)c1C`, the “% Inhibition” value turned out to be 0% and the Z score is 0.04.

As for `CC(C)S(=O)(=O)N1Cc2cncnc2C1`, the “% Inhibition” value is -7% and the Z score is listed as 1.27.

For `CN(C)c1ccc(Cn2c(=O)[nH]c3ccccc3c2=O)cn1`, the “% Inhibition” value is given as 7% and the Z score was -0.8.

Turning to `COCCN(CC(=O)N1N=C(c2ccc(OC)cc2)C[C@H]1c1ccc(OC)cc1)C(=O)C1CCC1`, the “% Inhibition” value is listed as -23% and the Z score is recorded as 3.74.

As to `CCc1ccccc1NC(=O)Cn1nc2ccc(C(=O)Nc3ccc(OC)cc3)cn2c1=O`, the “% Inhibition” value was -34% and the Z score is given as 2.95.

As to `CC(C)[C@H](CNC(=O)NCc1cc(Cl)c2c(c1)OCCO2)c1ccnn1C`, the “% Inhibition” value is reported as -10% and the Z score was 1.22.

With `Cc1cccc2nc(C(=O)N3CC[C@@]4(CCCN(CCO)C4=O)C3)c(F)n12`, the “% Inhibition” value was -4% and the Z score is on record as 0.7.

As to `CC1OCCC1NCC#Cc1ccc(C(F)(F)F)cc1` (stereo unspecified), the “% Inhibition” value is -8% and the Z score is on record as 1.24.

`COCCCN(Cc1csc(COc2ccccc2C(C)C)n1)C(=O)Cc1ccccc1`: the “% Inhibition” value is -2% and the Z score is reported as 0.34.

With `CC(C)(C)NC(=O)CNC(=O)c1ccc2c(c1)COC2`, the “% Inhibition” value is reported as 6% and the Z score was -0.83.

Regarding `COc1ccc(NCc2cc(=O)n3nc(NCc4ccc(C)cc4)nc3[nH]2)cc1`, the “% Inhibition” value is -4% and the Z score worked out at 0.65.

For the compound `CCc1nc(C)c(C(=O)Nc2cnn(C(C)C)c2)o1`, the “% Inhibition” value is listed as -11% and the Z score worked out at 1.01.

With `CCc1n[nH]c(C(=O)N2CCC3(CC2)[C@H](O)C[C@@H]3OC)c1C`, the “% Inhibition” value is 6% and the Z score is -0.86.

Take `CC(=O)N1CCN(C[C@@H]2OC[C@H](NC(=O)c3cccs3)[C@H]2O)CC1`: the “% Inhibition” value is on record as -4% and the Z score stood at 0.72.

As for `Cc1cc(CNc2cc3c(cc2C)OCO3)n[nH]1`, the “% Inhibition” value is given as -2% and the Z score was 0.37.
